Measurements reported in PubChem BioAssay (Tox21).
The shares of active, inactive and inconclusive entries below differ from those in the screen. For some of these results: Potencies of inconclusive entries are doubtful fits and often do not repeat. Active and inactive are the calls of the source. Unless noted, calls come from the whole dose curve; as a rule, active = well fitted curve in the direction sought with a large enough effect in the repeat runs; inconclusive = weak or mixed curves; inactive = no such curve, though single readings can be large; an effect the other way counts as inactive or inconclusive.

Legend:
[1] = qHTS assay to identify small molecule that activate the aryl hydrocarbon receptor (AhR) signaling pathway - cell viability counter screen (AID 743086); note: nearly all actives have a fitted effect of over 45% in size
Outline: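 HepG2-AhR-luc (HG2L7.5c1) cells, 4000/well, treated 24 h at 37 C with compound; viability measured as CellTiter-Fluor fluorescence after 30 min in the same wells as the luciferase read.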

[2] = biological target: Peroxisome proliferator-activated receptor gamma (Homo sapiens) (UniProt P37231); assay: qHTS assay to identify small molecule agonists of the peroxisome proliferator-activated receptor gamma (PPARg) signaling pathway (AID 743094; active = well fitted activation curve with a large enough effect in the signal ratio in the repeat runs, not every such curve was filed as active; inconclusive = weak or mixed curves, or effect the other way; inactive = no such curve, though single readings can be large or run the other way; the % refers to the signal ratio); conditions: HEK293H PPARg-UAS-bla, beta-lactamase FRET ratio, 17 h; activation: at 57 µM (top of the series) unless noted
Sequence of UniProt P37231 (P37231 whole entry, looked up): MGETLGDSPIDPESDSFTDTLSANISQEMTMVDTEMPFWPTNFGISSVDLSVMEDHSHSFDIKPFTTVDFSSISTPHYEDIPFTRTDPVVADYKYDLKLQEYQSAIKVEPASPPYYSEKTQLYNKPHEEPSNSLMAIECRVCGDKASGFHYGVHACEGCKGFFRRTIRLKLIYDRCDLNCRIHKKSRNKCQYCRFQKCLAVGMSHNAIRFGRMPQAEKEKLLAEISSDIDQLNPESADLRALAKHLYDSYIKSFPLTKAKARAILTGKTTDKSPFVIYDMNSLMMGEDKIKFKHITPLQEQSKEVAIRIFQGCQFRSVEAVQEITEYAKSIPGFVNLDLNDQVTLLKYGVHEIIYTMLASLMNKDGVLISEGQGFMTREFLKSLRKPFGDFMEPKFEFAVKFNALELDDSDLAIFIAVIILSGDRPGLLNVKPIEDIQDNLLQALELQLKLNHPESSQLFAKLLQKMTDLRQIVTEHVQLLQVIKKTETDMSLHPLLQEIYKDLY
Outline: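 Following 5 h plating at 37C, PPARg-bla HEK293H cells receive compound or DMSO for 17 h; fluorescence intensity is recorded after LiveBLAzer B/G loading for 1 h at room temperature.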

[3] = biological target: Peroxisome proliferator-activated receptor gamma (Homo sapiens) (UniProt P37231); assay: qHTS assay to identify small molecule antagonists of the peroxisome proliferator-activated receptor gamma (PPARg) signaling pathway (AID 743191; calls by dose curve; note: nearly all actives have a fitted effect of over 30% in size); conditions: HEK293H PPARg-UAS-bla, beta-lactamase ratio, antagonist, 17 h; ratio activity, negative = inhibition: at 62.6 µM (top of the series) unless noted
Outline: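 GeneBLAzer PPARg UAS-bla HEK293H cells, 5 h post-plating, exposed to compounds 17 h at 37C. LiveBLAzer B/G FRET substrate added for 1 h at room temperature; beta-lactamase reporter read by fluorescence intensity.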

[4] = qHTS assay to identify small molecule antagonists of the peroxisome proliferator-activated receptor gamma (PPARg) signaling pathway - cell viability counter screen (AID 743194); conditions: PPARg-bla HEK293H viability, CellTiter-Glo luminescence, 17 h, co-treated with 50 nM rosiglitazone; activity change, negative = cytotoxicity: at 62.6 µM (top of the series) unless noted; note: nearly all actives have a fitted effect of over 55% in size
Outline: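 Cytotoxicity counter screen in PPARg-bla HEK293H cells, same wells as reporter assay. Compounds plus 50 nM rosiglitazone (final) for 17 h at 37 C, then viability read by CellTiter-Glo luminescence.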

[5] = qHTS assay for small molecule agonists of the antioxidant response element (ARE) signaling pathway (AID 743202; active = well fitted activation curve with a large enough effect in the signal ratio in the repeat runs, not every such curve was filed as active; inconclusive = weak or mixed curves, or effect the other way; inactive = no such curve, though single readings can be large or run the other way; the % refers to the signal ratio); conditions: HepG2 ARE-bla reporter, beta-lactamase FRET, 16 h; activation: at 73.3 µM (top of the series) unless noted
Outline: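 Agonist mode reporter screen: HepG2 cells with ARE-controlled beta-lactamase are incubated with test compounds for 16 h at 37 C, and beta-lactamase activity is measured as fluorescence of cleaved B/G FRET substrate.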

[6] = qHTS assay for small molecule activators of the heat shock response signaling pathway (AID 743210; active = well fitted activation curve with a large enough effect in the signal ratio in the repeat runs, with a control signal flat, not every such curve was filed as active; inconclusive = weak or mixed curves; the % refers to the signal ratio); conditions: HeLa HSE-bla reporter, beta-lactamase ratio, 5 h; activation: at 62.6 µM (top of the series)
Outline: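 Quantitative high-throughput format using an engineered HeLa line in which heat shock response elements drive beta-lactamase; after 5 h with compound, cells received a B/G FRET substrate and fluorescence was read.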

[7] = qHTS assay to identify small molecule agonists of the peroxisome proliferator-activated receptor delta (PPARd) signaling pathway - cell viability counter screen (AID 743211); conditions: PPARd-bla HEK293H viability, CellTiter-Glo luminescence, 17 h; activity change, negative = cytotoxicity: at 62.6 µM (top of the series); note: nearly all actives have a fitted effect of over 55% in size
Outline: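 Tox21 library compounds, delivered in DMSO, were incubated 17 h with PPARd-bla HEK293H cells; cytotoxicity was taken from CellTiter-Glo luminescence read 30 min after reagent addition.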

[8] = biological target: Peroxisome proliferator-activated receptor delta (Homo sapiens) (UniProt Q03181); assay: qHTS assay to identify small molecule agonists of the peroxisome proliferator-activated receptor delta (PPARd) signaling pathway (AID 743212; calls by dose curve); conditions: HEK293H PPARd-UAS-bla, beta-lactamase FRET ratio, 17 h; activation: at 62.6 µM (top of the series) unless noted
Sequence of UniProt Q03181 (Q03181 whole entry, looked up): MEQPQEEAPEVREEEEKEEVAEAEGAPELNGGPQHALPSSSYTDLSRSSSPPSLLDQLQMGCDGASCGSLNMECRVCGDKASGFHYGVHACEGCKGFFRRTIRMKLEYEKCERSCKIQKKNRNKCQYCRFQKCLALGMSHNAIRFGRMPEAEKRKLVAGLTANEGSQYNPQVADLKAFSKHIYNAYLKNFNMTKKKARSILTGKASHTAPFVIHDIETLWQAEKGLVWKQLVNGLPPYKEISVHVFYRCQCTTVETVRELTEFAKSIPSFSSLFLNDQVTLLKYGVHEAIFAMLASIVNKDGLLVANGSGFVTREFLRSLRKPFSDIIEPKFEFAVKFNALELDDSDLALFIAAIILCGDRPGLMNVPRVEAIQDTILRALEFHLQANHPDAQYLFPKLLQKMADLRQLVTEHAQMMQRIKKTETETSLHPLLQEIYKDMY
Outline: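 Quantitative high-throughput agonist screen in a HEK293H beta-lactamase reporter line under UAS control. Compounds in DMSO, at 37 C. Fluorescence read after 2 h with FRET substrate at room temperature.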

[9] = qHTS assay to identify small molecule antagonists of the peroxisome proliferator-activated receptor delta (PPARd) signaling pathway - cell viability counter screen (AID 743213); conditions: PPARd-bla HEK293H viability, CellTiter-Glo luminescence, 17 h; viability change, negative = cytotoxic: at 62 µM (top of the series) unless noted; note: nearly all actives have a fitted effect of over 50% in size
Outline: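 HEK293H cells with the PPARd UAS-bla reporter, co-treated 17 h at 37 C with compounds and L165041 (300 nM final), were lysed with CellTiter-Glo. Luminescence indicated viable cell content.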

[10] = biological target: Peroxisome proliferator-activated receptor delta (Homo sapiens) (UniProt Q03181); assay: qHTS assay to identify small molecule antagonists of the peroxisome proliferator-activated receptor delta (PPARd) signaling pathway (AID 743215; active = well fitted inhibition curve with a large enough effect in the signal ratio in the repeat runs, not every such curve was filed as active; inconclusive = weak or mixed curves, or effect the other way; inactive = no such curve, though single readings can be large or run the other way; the % refers to the signal ratio;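 note: cells stimulated with agonist L165041 at 300 nM final during compound exposure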); conditions: HEK293H PPARd-UAS-bla, beta-lactamase FRET ratio, antagonist, 17 h; ratio activity, negative = inhibition: at 62 µM (top of the series) unless noted
Outline: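 With L165041 present at 300 nM final, compounds were incubated 17 h at 37 C on PPARd UAS-bla HEK293H cells. A FRET-based beta-lactamase substrate was then applied for 2 h at room temperature and fluorescence intensity recorded.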

[11] = biological target: Bile acid receptor (Homo sapiens) (UniProt Q96RI1); assay: qHTS assay to identify small molecule antagonists of the farnesoid-X-receptor (FXR) signaling pathway (AID 743217; active = well fitted inhibition curve with a large enough effect in the signal ratio in the repeat runs, not every such curve was filed as active; inconclusive = weak or mixed curves, or effect the other way; inactive = no such curve, though single readings can be large or run the other way; the % refers to the signal ratio; for activity change, negative = inhibition: % is set by controls: 0 for no effect and ±100 for the full control effect); conditions: HEK293T FXR-UAS-bla, beta-lactamase ratio, CDCA-stimulated, 16 h; activity change, negative = inhibition: at 62.6 µM (top of the series) unless noted
Sequence of UniProt Q96RI1 (Q96RI1 whole entry, looked up): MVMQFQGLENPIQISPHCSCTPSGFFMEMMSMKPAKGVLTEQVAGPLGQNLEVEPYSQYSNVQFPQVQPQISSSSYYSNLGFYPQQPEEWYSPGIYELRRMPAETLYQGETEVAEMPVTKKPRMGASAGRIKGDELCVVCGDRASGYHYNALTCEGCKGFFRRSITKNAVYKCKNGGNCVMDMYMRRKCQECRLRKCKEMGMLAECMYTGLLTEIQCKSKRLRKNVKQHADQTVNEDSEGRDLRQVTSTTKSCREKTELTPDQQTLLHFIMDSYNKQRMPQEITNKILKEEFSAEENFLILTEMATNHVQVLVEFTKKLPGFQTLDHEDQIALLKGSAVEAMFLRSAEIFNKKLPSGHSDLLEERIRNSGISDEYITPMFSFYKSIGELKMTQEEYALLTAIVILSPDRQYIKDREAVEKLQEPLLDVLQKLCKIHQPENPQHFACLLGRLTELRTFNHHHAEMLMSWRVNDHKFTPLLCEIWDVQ
Outline: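 In this cell-based antagonist screen, inhibition of CDCA-driven (50 uM final) UAS-beta-lactamase expression in HEK 293T cells was measured by FRET fluorescence following 16 h compound exposure at 37 °C.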

[12] = qHTS assay to identify small molecule agonists of the farnesoid-X-receptor (FXR) signaling pathway - cell viability counter screen (AID 743218); conditions: FXR-bla HEK293T viability, CellTiter-Glo luminescence, 16 h; viability change, negative = cytotoxic: at 62.6 µM (top of the series) unless noted; note: nearly all actives have a fitted effect of over 45% in size; for viability change, negative = cytotoxic: % is set by controls: 0 for no effect and ±100 for the full control effect
Outline: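 After 16 h at 37 C with test compounds, FXR-bla HEK 293T cells were given LiveBLAzer B/G substrate for 2 h at RT and then CellTiter-Glo; luminescence was taken after 30 min.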

[13] = biological target: Bile acid receptor (Homo sapiens) (UniProt Q96RI1); assay: qHTS assay to identify small molecule agonists of the farnesoid-X-receptor (FXR) signaling pathway (AID 743220; active = well fitted activation curve with a large enough effect in the signal ratio in the repeat runs, not every such curve was filed as active; inconclusive = weak or mixed curves, or effect the other way; the % refers to the signal ratio); conditions: HEK293T FXR-UAS-bla, beta-lactamase FRET ratio, 16 h; activation: at 62.6 µM (top of the series) unless noted
Outline: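 Beta-lactamase reporter under UAS control in GeneBLAzer FXR HEK 293T cells (5000/well) measured with LiveBLAzer FRET substrate after 2 h at room temperature. Compound exposure lasted 16 h at 37C.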

[14] = biological target: Vitamin D3 receptor (Homo sapiens) (UniProt P11473); assay: qHTS assay to identify small molecule agonists of the vitamin D receptor (VDR) signaling pathway (AID 743222; calls by dose curve; for activation: % is set by controls: 0 for no effect and ±100 for the full control effect); conditions: HEK293T VDR-UAS-bla, beta-lactamase FRET ratio, 16 h; activation: at 63.5 µM (top of the series) unless noted
Sequence of UniProt P11473 (P11473 whole entry, looked up): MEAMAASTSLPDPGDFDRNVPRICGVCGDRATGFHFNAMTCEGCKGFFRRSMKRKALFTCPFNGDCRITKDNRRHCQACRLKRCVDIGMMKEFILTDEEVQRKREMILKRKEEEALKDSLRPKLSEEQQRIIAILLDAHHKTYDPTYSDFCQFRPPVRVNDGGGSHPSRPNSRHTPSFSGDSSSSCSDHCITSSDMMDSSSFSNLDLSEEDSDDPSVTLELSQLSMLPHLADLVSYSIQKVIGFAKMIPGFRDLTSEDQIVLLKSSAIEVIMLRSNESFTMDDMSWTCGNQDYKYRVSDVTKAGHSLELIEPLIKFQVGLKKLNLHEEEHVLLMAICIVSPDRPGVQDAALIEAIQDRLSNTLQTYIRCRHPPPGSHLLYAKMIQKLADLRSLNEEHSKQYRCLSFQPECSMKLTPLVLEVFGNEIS
Outline: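 VDR-bla cells were seeded, left 4 h, treated with compounds in DMSO for 16 h, incubated 2 h at RT with B/G FRET substrate, and read for fluorescence.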

[15] = biological target: Vitamin D3 receptor (Homo sapiens) (UniProt P11473); assay: qHTS assay to identify small molecule antagonists of the vitamin D receptor (VDR) signaling pathway (AID 743223; active = well fitted inhibition curve with a large enough effect in the signal ratio in the repeat runs, not every such curve was filed as active; inconclusive = weak or mixed curves, or effect the other way; inactive = no such curve, though single readings can be large or run the other way; the % refers to the signal ratio); conditions: VDR-UAS-bla HEK293T, beta-lactamase FRET ratio, 16 h; activity change, negative = inhibition: at 61 µM (top of the series) unless noted
Outline: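 Quantitative HTS in VDR-bla reporter cells stimulated with 1alpha,25-dihydroxyvitamin D3, 3 nM final. Compound exposure 16 h, 37C, 5% CO2. Read-out: beta-lactamase FRET substrate fluorescence, 2 h RT.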

[16] = qHTS assay for small molecule activators of the heat shock response signaling pathway - cell viability counter screen (AID 743209); conditions: HSE-bla HeLa viability, CellTiter-Glo luminescence, 5 h; activity change, negative = cytotoxicity: at 62.6 µM (top of the series) unless noted; note: nearly all actives have a fitted effect of over 50% in size
Outline: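 Counter screen for cytotoxicity in HeLa HSE-bla reporter cells. Treatment was 5 h at 37 C; viability was detected by luminescent ATP assay (CellTiter-Glo) in the same wells as the beta-lactamase read.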

[17] = qHTS assay to identify small molecule agonists of the vitamin D receptor (VDR) signaling pathway - cell viability counter screen (AID 743224); conditions: VDR-bla HEK293T viability, CellTiter-Glo luminescence, 16 h; activity change, negative = cytotoxicity: at 62.6 µM (top of the series) unless noted; note: nearly all actives have a fitted effect of over 50% in size
Outline: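 Here cell health was gauged by luminescent ATP detection (CellTiter-Glo, 30 min RT) in VDR-bla cells that had been incubated with test compounds for 16 h at 37C and 5% CO2.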

[18] = qHTS assay to identify small molecule antagonists of the vitamin D receptor (VDR) signaling pathway - cell viability counter screen (AID 743225); conditions: VDR-bla HEK293T viability, CellTiter-Glo luminescence, 16 h; viability change, negative = cytotoxic: at 61 µM (top of the series) unless noted; note: nearly all actives have a fitted effect of over 50% in size; for viability change, negative = cytotoxic: % is set by controls: 0 for no effect and ±100 for the full control effect
Outline: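 Same-well multiplex: following 16 h treatment of HEK 293T cells carrying a UAS-driven beta-lactamase reporter with compound and agonist (3 nM final), and a 2 h FRET substrate step, CellTiter-Glo was added and luminescence read after 30 min.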

[19] = qHTS assay to identify small molecule antagonists of the farnesoid-X-receptor (FXR) signaling pathway - cell viability counter screen (AID 743221; active = well fitted cell-killing curve with a large enough effect in the repeat runs, not every such curve was filed as active; inconclusive = weak or mixed curves, or effect the other way; inactive = no such curve, though single readings can be large or run the other way; note: nearly all actives have a fitted effect of over 50% in size); conditions: FXR-bla HEK293T viability, CellTiter-Glo luminescence, 16 h; activity change, negative = cytotoxicity: at 62.6 µM (top of the series)
Outline: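 Cytotoxicity is taken from ATP luminescence (CellTiter-Glo, 30 min, room temperature) in FXR-bla HEK 293T cells previously incubated 16 h at 37 C with compound and chenodeoxycholic acid at 50 uM final.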
Potency is the fitted concentration of half-maximal effect; tags give direction and shape of the fitted curve or compound fluorescence and quenching.

Structure (SMILES): CCOC(=O)O[C@H](C)OC(=O)c1ccc2c(c1)cc(C(=O)NC1CCN(C(C)C)CC1)n2Cc1cc(-c2ccc(Cl)s2)on1
- Potency [1]: inconclusive: 64.1 µM [falling, single point]
- Potency [2]: inconclusive: 32.4 µM [cytotoxic, partial curve]
- Potency [3]: inconclusive: 25.7 µM [cytotoxic, full curve]
- Potency [4]: active: 10.2 µM
- Potency [5]: inconclusive: 18.1 µM [falling, full curve]
- Potency [6]: inconclusive: 35 µM
- Potency [7]: active: 8.14 µM
- Potency [8]: inconclusive: 22.9 µM
- Potency [9]: active: 18.2 µM
- Potency [10]: inconclusive: 57.6 µM [cytotoxic, single point]
- Potency [11]: inconclusive: 57.6 µM [cytotoxic, single point]
- Potency [12]: active: 16.2 µM
- Potency [13]: inconclusive: 40.8 µM [cytotoxic, partial curve]
- Potency [14]: inconclusive: 32.4 µM [cytotoxic, partial curve, poor fit]
- Potency [15]: active: 16.2 µM

Structure (SMILES): O=C1OC(O)C(C(Cl)Cl)=C1Cl (centres undefined)
- Potency [1]: inconclusive: 63 µM [falling, partial curve, poor fit]
- Potency [2]: inconclusive: 17.9 µM [activator, partial curve, poor fit]
- Potency [3]: inconclusive: 56.6 µM [rising, single point]
- Potency [4]: inconclusive: 22.5 µM [cytotoxic, full curve, poor fit]
- Potency [5]: inconclusive: 79.3 µM [rising, single point]
- Potency [16]: inconclusive: 12.7 µM [cytotoxic, full curve]
- Potency [6]: inconclusive: 9.69 µM
- Potency [7]: inconclusive: 22.5 µM [cytotoxic, full curve]
- Potency [9]: inconclusive: 12.7 µM [cytotoxic, single point]
- Potency [10]: inconclusive: 63.6 µM [inhibitor, single point]
- activity change, negative = inhibition [11]: inconclusive: 25.3% [at 81.1 µM]
- viability change, negative = cytotoxic [12]: inconclusive: -33.5% [cytotoxic] [at 81.1 µM]
- Potency [15]: inconclusive: 56.6 µM
- Potency [17]: inconclusive: 40.1 µM [cytotoxic, partial curve]
- viability change, negative = cytotoxic [18]: inconclusive: -30.3% [cytotoxic] [at 78.8 µM]

Structure (SMILES): Oc1ccc(C2(c3ccc(O)cc3)CC3CC2C2CCCC32)cc1 (centres undefined)
- Potency [1]: inconclusive: 52.3 µM [falling, partial curve]
- Potency [2]: inconclusive: 59.2 µM [cytotoxic]
- Potency [3]: inconclusive: 59.2 µM [cytotoxic, single point]
- Potency [4]: active: 26.5 µM
- Potency [5]: inconclusive: 58.7 µM [falling, partial curve]
- Potency [6]: inconclusive: 52.8 µM
- Potency [7]: active: 14.9 µM
- Potency [8]: inconclusive: 52.8 µM
- Potency [9]: active: 23.6 µM
- Potency [10]: inconclusive: 33.3 µM [inhibitor, partial curve]
- Potency [11]: inconclusive: 59.2 µM [single point]
- Potency [12]: active: 18.7 µM
- Potency [13]: inconclusive: 59.2 µM
- Potency [19]: inconclusive: 52.8 µM [falling, single point]
- activation [14]: inconclusive: 16.1%
- Potency [15]: active: 47 µM
- Potency [18]: active: 33.3 µM

Structure (SMILES): CCCCCCCCCCn1cc[n+](CCCCCCCCCC)c1C
- Potency [1]: inconclusive: 68.7 µM [falling, single point]
- Potency [2]: inconclusive: 61.7 µM [cytotoxic, single point]
- Potency [3]: inconclusive: 24.6 µM [cytotoxic, full curve]
- Potency [4]: active: 6.93 µM
- Potency [5]: inconclusive: 30.7 µM [falling, partial curve]
- Potency [16]: active: 21.9 µM
- Potency [6]: inconclusive: 49 µM [rising, partial curve]
- Potency [7]: active: 7.77 µM
- Potency [8]: inconclusive: 55 µM [falling, single point]
- Potency [9]: active: 13.8 µM
- Potency [10]: inconclusive: 55 µM [cytotoxic, single point]
- Potency [11]: inconclusive: 55 µM [cytotoxic]
- Potency [12]: active: 39 µM
- Potency [13]: inconclusive: 55 µM [cytotoxic]
- Potency [19]: active: 34.7 µM
- Potency [15]: active: 19.5 µM
- Potency [18]: active: 6.93 µM
